Source: publication PMC12040169 (PLOS Biology, 2025)
Some of the results follow.

test system: T1, C. trachomatis L2/434/Bu expressing GFP (CTL2-GFP); parameters: species or system HeLa; C. trachomatis total inclusion area by high-content imaging, normalised to DMSO; details: total inclusion area; 28.5 h, 10 µM; inhibitor
T1 construct: L2/434/Bu GFP intracellular growth in HeLa cells
Procedure, shortened: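 High-content imaging followed the bulk GFP/resorufin measurement: fixed, Hoechst-stained cells were scored for GFP inclusions and host nuclei per well. Total inclusion area and count served as growth proxies, nuclei number as the viability proxy. MIC calculation matched the bulk assay.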

Row | SMILES | % of control remaining
1 | COc1ccccc1CN(Cc1cccnc1)C(=O)NC(C)C(C)C (stereo not shown) [CBK307672] | 82.8128
2 | COc1ccc(-c2nnc(SCc3cc(=O)oc4cc(C)ccc34)n2CC(C)C)cc1 [CBK297518] | 106.954
3 | O=C(COc1ccccc1)Nc1nn(Cc2ccc(S(=O)(=O)N3CCCC3)cc2)c2ccccc12 [CBK061594] | 104.719
4 | C=CCN1C(=O)C2(CC(=O)N(CCCN(C)S(C)(=O)=O)C2=O)c2cc(F)ccc21 (stereo not shown) [CBK075319] | 99.7747
5 | C[C@]12CN(C(=O)C3CCCC3)C[C@H]1NC(=O)c1ccccc1C2=O [CBK281672] | 90.25
6 | CC1CCCN(C(=O)CC(NC(N)=O)c2cccc(Br)c2)CC1 (stereo not shown) [CBK305804] | 62.5952
7 | O=C(O)CCc1ccc(-c2cccs2)n1NC(=O)c1ccc(Cl)cc1 [CBK264738] | 103.148
8 | O=C1CCCC2=C1C(c1ccccc1Cl)n1nnnc1N2 (stereo not shown) [CBK288151] | 111.68
9 | O=C(Nc1ccccc1)c1ccc2c(c1)C(=O)N(c1cccc(N3C(=O)c4ccc(C(=O)Nc5ccccc5)cc4C3=O)n1)C2=O [CBK261197] | 103.093
10 | Fc1cccc(SCc2ccccc2)c1 [CBK002912] | 77.4647
11 | COC(=O)c1cnn(-c2cc(Oc3ccccc3C)ncn2)c1N [CBK098668] | 75.8032
12 | O=C(NCCN1CCC(O)(c2ccc(F)cc2)CC1)c1ccco1 [CBK283166] | 72.2841
13 | NS(=O)(=O)c1ccc(C(=O)N2CCC3(CCN(C(=O)c4cc(F)c(F)cc4F)C3)C2)cc1 (stereo not shown) [CBK131385] | 117.308
14 | CC(C)(C)Cc1nnc(N)s1 [CBK050161] | 88.2929
15 | C#CCNS(=O)(=O)c1cccc(C(=O)NC2CCN(CCOC)CC2)c1 [CBK305714] | 67.7832
16 | N=C(N)NC1=NC(=O)C(CC(=O)Nc2ccc(Oc3ccccc3)cc2)S1 (stereo not shown) [CBK300482] | 99.9932
17 | Cc1cccn2c(CN3CC(O)C3)c(C(=O)N3CCOCC3)nc12 [CBK306857] | 94.7
18 | CC(=O)c1ccc(C(=O)N(C)Cc2ccc(F)cc2)s1 [CBK296660] | 79.8466
19 | Cc1noc(C)c1NC(=O)c1cnccc1C(F)(F)F [CBK200306] | 86.772
20 | CS(=O)(=O)N1CCCc2cc(-c3csc(N4CCCC4)n3)ccc21 [CBK306093] | 133.35

Row | SMILES | % of control remaining
21 | CN(CC(=O)Nc1cccnc1N1CCNCC1)C(=O)c1ccccc1 [CBK028264T] | 103.423
22 | Cc1cc(NC(=O)c2nn(-c3ncccn3)c3ccccc23)n(C)n1 [CBK048505] | 115.387
23 | CCCS(=O)(=O)Nc1nccnc1N1CCN(c2ccc3c(c2)OCO3)CC1 [CBK048824] | 97.2501
24 | COc1cc(C=O)ccc1OC(=O)c1nsc(Cl)c1Cl [CBK266619] | 116.125
25 | CN(C)CCCNC(=O)c1cnc2cc(Cl)ccc2c1O [CBK107354] | 98.8708
26 | CC(C)(C)OC(=O)NCCNCc1ccccc1C(F)(F)F [CBK056695] | 93.8478
27 | CCN(CC)C(=O)CN1C(=O)[C@H]2CCCN2C(=O)c2ccccc21 [CBK286319] | 68.0021
28 | O=C(COc1ccc(C(=O)c2ccc(F)cc2)cc1)c1ccc2c(c1)OCCO2 [CBK297536] | 102.409
29 | CN1CCC(N2CCN(C(=O)NCC(c3ccccc3)c3ccccc3)CC2)CC1 [CBK156096] | 86.0797
30 | COCOc1ccc(-c2nc(-c3cnc(OC)nc3OC)cnc2N)cc1 [CBK063991] | 92.8842
31 | O=S(=O)(Nc1ccccc1OC(F)(F)F)c1ccc(N2CCNCC2)c2ccccc12 [CBK003933C] | 86.5432
32 | Cc1ccc(C(=O)NCCN2CCOCC2)c(NCCCn2ccnc2)n1 [CBK076371] | 98.6956
33 | O=C(NCc1nnc(-c2cccs2)o1)c1ccccc1-c1ccccc1 [CBK286293] | 92.0457
34 | CCC(Oc1ccc(C)cc1)C(=O)Nc1ccccc1C(=O)N1CCOCC1 (stereo not shown) [CBK270132] | 129.343
35 | CCC(=O)N1CCC(NC(=O)c2cnc(-c3ccncc3)s2)C1 (stereo not shown) [CBK305550] | 69.6587
36 | O=C(O)C(Cc1ccccc1)n1cnnn1 (stereo not shown) [CBK021162] | 89.2948
37 | OCc1cc(Cl)c(Cl)c(CO)c1O [CBK269397] | 102.688
38 | COc1ccc(CN2CCCN(C(=O)c3ccc(C#N)cc3)CC2)cc1 [CBK305273] | 44.7363
39 | COc1ccccc1-c1cnc(N)c(N[C@@H](CO)C(C)C)n1 [CBK063749] | 125.442
40 | Cc1ccc2nc(N3CCCC(O)C3)c(CN3CCC(F)CC3)cc2c1 (stereo not shown) [CBK307016] | 80.5715
